Assay results from the supplement of paper PMC9588766.
Structures can show the parent of a compound that is named as a salt. In all, about 1,900 compounds were measured (“cell viability of compound + 1 nM pemigatinib relative to pemigatinib-only (DMSO) wells”: median about 0.95, lowest 2% from about 0.22 on). This is one part of the list.

Each compound was assayed on PDC-DUC18828 (assay: cell viability of compound + 1 nM pemigatinib relative to pemigatinib-only (DMSO) wells (fraction); PDC-DUC18828 is a patient-derived cholangiocarcinoma cell line; higher = less growth inhibition). Conditions: first compound 1 µM; pemigatinib concentration 1 nM; 72 h.
Procedure: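 Selleck Bioactive library screen in the patient-derived FGFR2 fusion-positive ICC cell line PDC-DUC18828 (500 cells/well). Each compound was tested at 1 uM with 1 nM pemigatinib, in triplicate, for 72 h. Viability was read by CellTiter-Glo and normalised to plate DMSO controls. Value is the paper's averaged normalised viability.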

SMILES | cell viability
Cc1cccc(C)c1OCC(C)N (stereo unspecified) [Mexiletine HCl] + CCN1C(=O)N(c2c(F)c(OC)cc(OC)c2F)Cc2cnc3[nH]c(CN4CCOCC4)cc3c21 [pemigatinib] | 0.984
CN1[C@@H]2CC[C@H]1C[C@@H](OC(=O)c1c[nH]c3ccccc13)C2 [Tropisetron] + CCN1C(=O)N(c2c(F)c(OC)cc(OC)c2F)Cc2cnc3[nH]c(CN4CCOCC4)cc3c21 [pemigatinib] | 1.01
O=S(=O)(NCCSSCCNS(=O)(=O)c1cc(Cl)ccc1Cl)c1cc(Cl)ccc1Cl + CCN1C(=O)N(c2c(F)c(OC)cc(OC)c2F)Cc2cnc3[nH]c(CN4CCOCC4)cc3c21 [pemigatinib] | 0.978
CC(=O)[C@H]1CC[C@H]2[C@@H]3C=CC4=CC(=O)CC[C@@]4(C)[C@@H]3CC[C@]12C [Dydrogesterone] + CCN1C(=O)N(c2c(F)c(OC)cc(OC)c2F)Cc2cnc3[nH]c(CN4CCOCC4)cc3c21 [pemigatinib] | 0.966
Cc1cc(=O)[nH]c(=S)[nH]1 [Methylthiouracil] + CCN1C(=O)N(c2c(F)c(OC)cc(OC)c2F)Cc2cnc3[nH]c(CN4CCOCC4)cc3c21 [pemigatinib] | 0.893
COc1ccccc1OCC(O)CO (stereo unspecified) [Guaifenesin] + CCN1C(=O)N(c2c(F)c(OC)cc(OC)c2F)Cc2cnc3[nH]c(CN4CCOCC4)cc3c21 [pemigatinib] | 1
Nc1nc(CC(=O)Nc2ccc(CCNC[C@H](O)c3ccccc3)cc2)cs1 [Mirabegron] + CCN1C(=O)N(c2c(F)c(OC)cc(OC)c2F)Cc2cnc3[nH]c(CN4CCOCC4)cc3c21 [pemigatinib] | 0.836
CC[C@]1(O)C[C@H]2CN(CCc3c([nH]c4ccccc34)[C@@](C(=O)OC)(c3cc4c(cc3OC)N(C=O)[C@H]3[C@@](O)(C(=O)OC)[C@H](OC(C)=O)[C@]5(CC)C=CCN6CC[C@]43[C@@H]65)C2)C1 [Vincristine] + CCN1C(=O)N(c2c(F)c(OC)cc(OC)c2F)Cc2cnc3[nH]c(CN4CCOCC4)cc3c21 [pemigatinib] | 0.234
C[C@H]1O[C@@H](O[C@H]2[C@@H](O)C[C@H](O[C@H]3[C@@H](O)C[C@H](O[C@H]4CC[C@@]5(C)[C@H](CC[C@@H]6[C@@H]5C[C@@H](O)[C@]5(C)[C@@H](C7=CC(=O)OC7)CC[C@]65O)C4)O[C@@H]3C)O[C@@H]2C)C[C@H](O)[C@@H]1O [Digoxin] + CCN1C(=O)N(c2c(F)c(OC)cc(OC)c2F)Cc2cnc3[nH]c(CN4CCOCC4)cc3c21 [pemigatinib] | 0.135
CC(C(=O)O)c1ccc(-c2ccccc2)c(F)c1 (stereo unspecified) [Flurbiprofen] + CCN1C(=O)N(c2c(F)c(OC)cc(OC)c2F)Cc2cnc3[nH]c(CN4CCOCC4)cc3c21 [pemigatinib] | 0.918
NC(=O)c1cn(Cc2c(F)cccc2F)nn1 [Rufinamide] + CCN1C(=O)N(c2c(F)c(OC)cc(OC)c2F)Cc2cnc3[nH]c(CN4CCOCC4)cc3c21 [pemigatinib] | 0.904
Cc1cc(O)c2c(c1)C(=O)c1cccc(O)c1C2=O [Chrysophanic Acid] + CCN1C(=O)N(c2c(F)c(OC)cc(OC)c2F)Cc2cnc3[nH]c(CN4CCOCC4)cc3c21 [pemigatinib] | 0.886
CC[C@H]1OC(=O)[C@H](C)[C@@H](O[C@H]2C[C@@](C)(OC)[C@@H](O)[C@H](C)O2)[C@H](C)[C@@H](O[C@@H]2O[C@H](C)C[C@H](N(C)C)[C@H]2O)[C@](C)(O)C[C@@H](C)C(=O)[C@H](C)[C@H]2OC(=O)O[C@@]21C [Erythromycin Cyclocarbonate] + CCN1C(=O)N(c2c(F)c(OC)cc(OC)c2F)Cc2cnc3[nH]c(CN4CCOCC4)cc3c21 [pemigatinib] | 0.938
Cc1c(OCC(F)(F)F)ccnc1C[S@@+]([O-])c1nc2ccccc2[nH]1 [Dexlansoprazole] + CCN1C(=O)N(c2c(F)c(OC)cc(OC)c2F)Cc2cnc3[nH]c(CN4CCOCC4)cc3c21 [pemigatinib] | 0.969
CN(C)C(=O)C(CCN1CCC(O)(c2ccc(Cl)cc2)CC1)(c1ccccc1)c1ccccc1 [Loperamide HCl] + CCN1C(=O)N(c2c(F)c(OC)cc(OC)c2F)Cc2cnc3[nH]c(CN4CCOCC4)cc3c21 [pemigatinib] | 0.936
Cc1ccccc1C(=O)Nc1ccc(C(=O)N2CCCC(O)c3cc(Cl)ccc32)c(C)c1 (stereo unspecified) [Tolvaptan] + CCN1C(=O)N(c2c(F)c(OC)cc(OC)c2F)Cc2cnc3[nH]c(CN4CCOCC4)cc3c21 [pemigatinib] | 0.996
O=C(Nc1cccc(C(F)(F)F)c1)Nc1cc(S(=O)(=O)NC2CC2)ccc1-c1ccsc1 + CCN1C(=O)N(c2c(F)c(OC)cc(OC)c2F)Cc2cnc3[nH]c(CN4CCOCC4)cc3c21 [pemigatinib] | 0.965
O=C1c2c(O)cccc2C([C@@H]2O[C@H](CO)[C@@H](O)[C@H](O)[C@H]2O)c2cc(CO)cc(O)c21 (stereo partly specified) [Aloin] + CCN1C(=O)N(c2c(F)c(OC)cc(OC)c2F)Cc2cnc3[nH]c(CN4CCOCC4)cc3c21 [pemigatinib] | 0.916

SMILES | cell viability
CC(NC(=O)C(Cc1ccccc1)NC(=O)OCc1ccccc1)C(=O)CF (stereo unspecified) + CCN1C(=O)N(c2c(F)c(OC)cc(OC)c2F)Cc2cnc3[nH]c(CN4CCOCC4)cc3c21 [pemigatinib] | 1.01
C=CCc1cccc(/C=N/NC(=O)CN2CCN(Cc3ccccc3)CC2)c1O + CCN1C(=O)N(c2c(F)c(OC)cc(OC)c2F)Cc2cnc3[nH]c(CN4CCOCC4)cc3c21 [pemigatinib] | 0.98
CC(C(=O)O)c1ccc2c(c1)[nH]c1ccc(Cl)cc12 (stereo unspecified) [Carprofen] + CCN1C(=O)N(c2c(F)c(OC)cc(OC)c2F)Cc2cnc3[nH]c(CN4CCOCC4)cc3c21 [pemigatinib] | 0.991
O=C(Nc1ccccc1-c1cn2c(CN3CCNCC3)csc2n1)c1cnc2ccccc2n1 + CCN1C(=O)N(c2c(F)c(OC)cc(OC)c2F)Cc2cnc3[nH]c(CN4CCOCC4)cc3c21 [pemigatinib] | 0.882
O=C(O)c1cc(/N=N/c2ccc(O)c(C(=O)O)c2)ccc1O [Olsalazine Sodium] + CCN1C(=O)N(c2c(F)c(OC)cc(OC)c2F)Cc2cnc3[nH]c(CN4CCOCC4)cc3c21 [pemigatinib] | 0.948
CN(C)CC(=O)Nc1ccc2[nH]c(=O)c3ccccc3c2c1 + CCN1C(=O)N(c2c(F)c(OC)cc(OC)c2F)Cc2cnc3[nH]c(CN4CCOCC4)cc3c21 [pemigatinib] | 0.986
CNC(=O)c1cc(Oc2ccc(NC(=O)Nc3ccc(Cl)c(C(F)(F)F)c3)c(F)c2)ccn1 [Regorafenib (BAY 73-4506)] + CCN1C(=O)N(c2c(F)c(OC)cc(OC)c2F)Cc2cnc3[nH]c(CN4CCOCC4)cc3c21 [pemigatinib] | 0.971
CC(C)(C)NCC(O)COc1cccc2c1CCC(=O)N2 (stereo unspecified) [Carteolol HCl] + CCN1C(=O)N(c2c(F)c(OC)cc(OC)c2F)Cc2cnc3[nH]c(CN4CCOCC4)cc3c21 [pemigatinib] | 0.986
CN1CCC(=C2c3ccccc3CCc3cccnc32)CC1 [Azatadine dimaleate] + CCN1C(=O)N(c2c(F)c(OC)cc(OC)c2F)Cc2cnc3[nH]c(CN4CCOCC4)cc3c21 [pemigatinib] | 0.658
Nc1nc2ccc(OC(F)(F)F)cc2s1 [Riluzole] + CCN1C(=O)N(c2c(F)c(OC)cc(OC)c2F)Cc2cnc3[nH]c(CN4CCOCC4)cc3c21 [pemigatinib] | 1.03
COc1ccc2c(c1)c(CC(=O)O)c(C)n2C(=O)c1ccc(Cl)cc1 [Indomethacin] + CCN1C(=O)N(c2c(F)c(OC)cc(OC)c2F)Cc2cnc3[nH]c(CN4CCOCC4)cc3c21 [pemigatinib] | 0.967
CC(C)C[C@H](NC(=O)[C@@H](NC(=O)c1cccc(-c2ccccc2)n1)[C@@H](C)O)B(O)O + CCN1C(=O)N(c2c(F)c(OC)cc(OC)c2F)Cc2cnc3[nH]c(CN4CCOCC4)cc3c21 [pemigatinib] | 0.0169
CNC(=O)c1cc(Oc2ccc(NC(=O)Nc3cc(C(C)(C)C)nn3-c3ccc4ncccc4c3)c(F)c2)ccn1 [DCC-2036 (Rebastinib)] + CCN1C(=O)N(c2c(F)c(OC)cc(OC)c2F)Cc2cnc3[nH]c(CN4CCOCC4)cc3c21 [pemigatinib] | 0.995
OC[C@H]1O[C@H](O[C@]2(CCl)O[C@H](CCl)[C@@H](O)[C@@H]2O)[C@H](O)[C@@H](O)[C@H]1Cl [Sucralose] + CCN1C(=O)N(c2c(F)c(OC)cc(OC)c2F)Cc2cnc3[nH]c(CN4CCOCC4)cc3c21 [pemigatinib] | 0.967
C[C@@H]1CCO[C@H]2Cn3cc(C(=O)NCc4ccc(F)cc4F)c(=O)c(O)c3C(=O)N12 + CCN1C(=O)N(c2c(F)c(OC)cc(OC)c2F)Cc2cnc3[nH]c(CN4CCOCC4)cc3c21 [pemigatinib] | 0.997
O=C(C1CCCCC1)N1CC(=O)N2CCc3ccccc3C2C1 (stereo unspecified) [Praziquantel] + CCN1C(=O)N(c2c(F)c(OC)cc(OC)c2F)Cc2cnc3[nH]c(CN4CCOCC4)cc3c21 [pemigatinib] | 0.929
C[C@]1(O)C[C@@H](c2nc(-c3ccc4ccc(-c5ccccc5)nc4c3)c3c(N)nccn32)C1 [OSI-906 (Linsitinib)] + CCN1C(=O)N(c2c(F)c(OC)cc(OC)c2F)Cc2cnc3[nH]c(CN4CCOCC4)cc3c21 [pemigatinib] | 0.866
COc1cc2nccc(Oc3ccc(NC(=O)Nc4cc(C)on4)c(Cl)c3)c2cc1OC [Tivozanib (AV-951)] + CCN1C(=O)N(c2c(F)c(OC)cc(OC)c2F)Cc2cnc3[nH]c(CN4CCOCC4)cc3c21 [pemigatinib] | 0.868
